In all, about 33,000 sequences were measured (“E-score (-0.5 to 0.5)”: median about -0.013, highest 2% from about 0.3 on). Some of the results follow.
The sequences below were run against T1, Msn1 (UniProt P22148) (assay: PBM E-score (8-mer binding enrichment) (E-score (-0.5 to 0.5)); higher = stronger / more preferred TF binding; most listed sequences are background and not binding sites). Conditions: protein concentration: 200 nM; construct: GST-full length.
T1 sequence: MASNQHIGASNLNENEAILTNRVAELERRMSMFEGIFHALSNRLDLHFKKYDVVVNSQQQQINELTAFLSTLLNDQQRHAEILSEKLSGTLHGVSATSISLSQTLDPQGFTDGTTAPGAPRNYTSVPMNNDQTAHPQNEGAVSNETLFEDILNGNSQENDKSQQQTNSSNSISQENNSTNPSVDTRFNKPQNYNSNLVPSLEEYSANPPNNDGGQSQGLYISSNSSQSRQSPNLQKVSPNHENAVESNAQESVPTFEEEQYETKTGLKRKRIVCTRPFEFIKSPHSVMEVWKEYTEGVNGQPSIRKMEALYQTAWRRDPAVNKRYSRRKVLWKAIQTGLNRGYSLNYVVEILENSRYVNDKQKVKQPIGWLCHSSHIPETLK
How it was run: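 Universal all-10-mer Agilent arrays, double-stranded by primer extension on fresh or once-stripped slides, were probed with about 100-200 nM GST-tagged yeast transcription factors made by PURExpress. Fluorescent anti-GST detected bound protein, and masliner normalised the scans. E-scores from the Universal PBM Analysis Suite were given to each ungapped eight-base word pooled with its reverse complement.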

Compared with ACCATCTG, CCTTCCTA is lower in “PBM E-score” value: -0.162 for the first, -0.309 for the second.

Going from CCAGGAAA to AGAACGCG, the “PBM E-score” value rises from -0.0478 to 0.086.

Going from CGCGCGAA to AAGCGAAA, the “PBM E-score” value falls from 0.132 to 0.00534.

First: ACATTCCG
Second: GACGGCGA
The “PBM E-score” value of the first is higher: 0.252 for the first, -0.144 for the second.

Going from AACGAAGT to CAGGGCTA, the “PBM E-score” value falls from -0.0723 to -0.166.

Compared with CTCAGCAA, AACACATG is higher in “PBM E-score” value: 0.0422 for the first, 0.07 for the second.

First: AATTAAAG
Second: AGTCTATA
The “PBM E-score” value of the first is higher: 0.167 for the first, 0.0264 for the second.

Compared with ACCGTGGC, ATGATGAC is higher in “PBM E-score” value: -0.22 for the first, 0.086 for the second.

First: AATCAAAG
Second: ATCGTTGC
The “PBM E-score” value of the first is higher: 0.0578 for the first, -0.138 for the second.

Compared with ATTGAACG, CTGGTAAA is higher in “PBM E-score” value: -0.00389 for the first, 0.0379 for the second.

First: ACGCTTTG
Second: GCTATCCC
The “PBM E-score” value of the first is higher: -0.0413 for the first, -0.0904 for the second.

First: AGCGTAAG
Second: AAGCAAAT
The “PBM E-score” value of the first is lower: -0.124 for the first, 0.111 for the second.

Going from ATCACGAG to AGGACCAG, the “PBM E-score” value rises from -0.188 to -0.141.

Compared with CAGCCTAG, CGCGGACG is higher in “PBM E-score” value: -0.107 for the first, 0.181 for the second.

First: GGCACAGA
Second: AGCCGCCT
The “PBM E-score” value of the first is lower: -0.167 for the first, -0.121 for the second.

Going from ACTCTGAT to ACTGGCGC, the “PBM E-score” value rises from -0.175 to -0.107.

First: CCCTTCTA
Second: GGTTGCCA
The “PBM E-score” value of the first is lower: -0.0353 for the first, 0.00561 for the second.

Compared with GCAGCGAC, ACAAGATA is higher in “PBM E-score” value: -0.11 for the first, 0.189 for the second.

Going from CGCCAACG to AGCCCCCG, the “PBM E-score” value falls from -0.126 to -0.417.

First: GGACGGAA
Second: AGCTAGGC
The “PBM E-score” value of the first is higher: 0.0587 for the first, -0.0292 for the second.

Compared with ACGTCCCA, CATGTCGC is higher in “PBM E-score” value: 0.0941 for the first, 0.237 for the second.

First: GGTACGGA
Second: AGGGTAGA
The “PBM E-score” value of the first is higher: 0.0921 for the first, -0.229 for the second.

Compared with ACTGCGAA, ATGACTAC is higher in “PBM E-score” value: -0.198 for the first, -0.193 for the second.

First: CTAAGCGA
Second: GCTCCTAC
The “PBM E-score” value of the first is higher: -0.0865 for the first, -0.23 for the second.

First: GCGCAGCA
Second: CCAGTAAG
The “PBM E-score” value of the first is lower: -0.29 for the first, 0.135 for the second.

Going from GGAAGGTA to GAGTAACC, the “PBM E-score” value falls from -0.0362 to -0.092.

First: GAGGGGCA
Second: CTGTATGC
The “PBM E-score” value of the first is lower: -0.245 for the first, 0.0129 for the second.

Going from GGGGGGAA to GAAAGATC, the “PBM E-score” value rises from -0.389 to -0.104.

Going from CAATGAGG to AGTGCTAT, the “PBM E-score” value rises from -0.283 to -0.0763.

First: CAATAGGC
Second: AAGGCGCA
The “PBM E-score” value of the first is lower: -0.0431 for the first, -0.0267 for the second.

Going from CCAATGCA to AGAGAAAC, the “PBM E-score” value rises from -0.0756 to 0.00425.

First: AGAACCCC
Second: CTGGGGCA
The “PBM E-score” value of the first is higher: -0.209 for the first, -0.258 for the second.

First: TAACGTCA
Second: GTAAACGA
The “PBM E-score” value of the first is higher: 0.155 for the first, -0.148 for the second.

Compared with GCGAGAAA, AACCGGCC is lower in “PBM E-score” value: 0.0329 for the first, -0.00471 for the second.

First: GTGACTGA
Second: CCTGTTCG
The “PBM E-score” value of the first is higher: 0.0999 for the first, -0.00437 for the second.

Compared with AACTTCAT, GGGATTCA is lower in “PBM E-score” value: 0.144 for the first, 0.0945 for the second.

Compared with TGTATGAA, CTCGTATA is lower in “PBM E-score” value: 0.0909 for the first, -0.0671 for the second.

First: CCACCTCG
Second: AAAAGTAA
The “PBM E-score” value of the first is lower: -0.228 for the first, 0.25 for the second.

First: ACTGCCTA
Second: ACATCCAG
The “PBM E-score” value of the first is lower: 0.029 for the first, 0.0584 for the second.

Going from AGGTGAAT to CGATAGCC, the “PBM E-score” value falls from 0.0469 to -0.0589.

Compared with CCGAAAGG, CACGACGG is higher in “PBM E-score” value: -0.0079 for the first, 0.178 for the second.

First: GAGAGCTC
Second: CTCCACTA
The “PBM E-score” value of the first is lower: -0.248 for the first, 0.0243 for the second.

Going from AATCGCGT to AGATCCAG, the “PBM E-score” value falls from 0.0236 to -0.0622.

Compared with ATCAGTTC, AATCGGTA is higher in “PBM E-score” value: -0.0766 for the first, -0.049 for the second.

Compared with AGTTGGAA, CATTCGCA is higher in “PBM E-score” value: 0.0352 for the first, 0.0837 for the second.

Going from GAATGTGA to TCACCTAA, the “PBM E-score” value rises from 0.076 to 0.102.

Compared with AAGGCCCT, CCCACCAA is lower in “PBM E-score” value: -0.0795 for the first, -0.228 for the second.

Going from CTCAAAGC to AGTCGCAA, the “PBM E-score” value rises from 0.015 to 0.036.

Compared with ATTAATAG, AGGGTCAT is lower in “PBM E-score” value: 0.0264 for the first, -0.0217 for the second.

Going from AGCGTACG to GTGTAGTA, the “PBM E-score” value rises from -0.163 to 0.00943.

Going from CTGGCTGA to AACGTCGT, the “PBM E-score” value rises from -0.201 to -0.098.

Going from CTAGAACA to CCGTAAGA, the “PBM E-score” value falls from 0.133 to -0.174.

Compared with ACCTTAGC, GGGCCCCC is lower in “PBM E-score” value: -0.0675 for the first, -0.45 for the second.

First: AACCCCGA
Second: TGAGCGAA
The “PBM E-score” value of the first is higher: 0.0744 for the first, 0.0506 for the second.

Compared with TGGTCCAA, CTAGGGAG is lower in “PBM E-score” value: -0.0938 for the first, -0.254 for the second.

First: AGGTAGGA
Second: GACCTAAA
The “PBM E-score” value of the first is lower: -0.0106 for the first, 0.0444 for the second.

Going from ACACGATA to GAAAGCAA, the “PBM E-score” value falls from 0.16 to 0.0864.

Going from CCCGTCCC to GTAACTGA, the “PBM E-score” value rises from -0.321 to -0.136.

Compared with CGAGCATA, CAAGGCTC is higher in “PBM E-score” value: -0.128 for the first, -0.118 for the second.

Going from AAGTGCCA to GGATGCAA, the “PBM E-score” value falls from -0.104 to -0.137.

First: CGAAAAAC
Second: GTTGTGGA
The “PBM E-score” value of the first is higher: 0.103 for the first, 0.0318 for the second.

First: TCAACCGA
Second: CAGTATGG
The “PBM E-score” value of the first is lower: 0.0857 for the first, 0.0977 for the second.

Compared with AAACTGGA, CATTACAA is higher in “PBM E-score” value: 0.0493 for the first, 0.153 for the second.

Compared with AAACATAT, CCACAGTC is lower in “PBM E-score” value: 0.258 for the first, -0.296 for the second.

Compared with CAGCGTAA, CGATCGTC is higher in “PBM E-score” value: -0.0415 for the first, 0.0286 for the second.

Compared with ATAGGGGC, AGAGACGA is higher in “PBM E-score” value: -0.221 for the first, -0.00333 for the second.

Going from ACCGTTCC to CCGTGAGC, the “PBM E-score” value falls from -0.00636 to -0.1.

Compared with CACCAGTA, GCAGTGGC is lower in “PBM E-score” value: -0.0132 for the first, -0.202 for the second.

First: AAACGTCG
Second: AATTATGT
The “PBM E-score” value of the first is lower: 0.132 for the first, 0.301 for the second.

Compared with GAACTGGC, ACTACGCG is higher in “PBM E-score” value: -0.223 for the first, -0.0611 for the second.

Going from CCGAATCG to AGACCACA, the “PBM E-score” value falls from 0.0428 to -0.0688.

Compared with AGAAGAGC, CGAAGAGA is higher in “PBM E-score” value: -0.0669 for the first, 0.0234 for the second.

Going from AGGCATCA to CCGCACCC, the “PBM E-score” value falls from -0.111 to -0.301.

First: CGCCGACC
Second: ACGCCCAG
The “PBM E-score” value of the first is higher: -0.126 for the first, -0.176 for the second.

Going from TCAGATAA to AGATCGCA, the “PBM E-score” value falls from 0.132 to -0.0555.

First: AACAGTCC
Second: GGCGGGCA
The “PBM E-score” value of the first is lower: -0.132 for the first, -0.0685 for the second.

Going from ACGGACCT to AGGAAGCG, the “PBM E-score” value falls from 0.0608 to -0.113.

Compared with AGAAGGTG, GGGGTAAA is higher in “PBM E-score” value: -0.044 for the first, 0.033 for the second.

First: AGTAGGAG
Second: AGAAAGCT
The “PBM E-score” value of the first is lower: -0.296 for the first, 0.105 for the second.

First: GGGACTGA
Second: CTGGATGA
The “PBM E-score” value of the first is lower: -0.182 for the first, -0.114 for the second.

Going from CCGCTAGA to ATACACTG, the “PBM E-score” value rises from -0.187 to 0.0602.

Going from GCTGGGAC to ACACTCGG, the “PBM E-score” value falls from 0.228 to 0.183.

First: GACATACC
Second: AATCTTTC
The “PBM E-score” value of the first is higher: 0.4 for the first, 0.134 for the second.

Compared with GCACCCTA, AATCCGTA is higher in “PBM E-score” value: -0.242 for the first, -0.107 for the second.

Going from AATCACTG to GTATGAAC, the “PBM E-score” value falls from 0.00361 to -0.0402.

First: CGGTGCGC
Second: CACTGCTC
The “PBM E-score” value of the first is lower: -0.133 for the first, -0.0559 for the second.

Source: the supplement of paper PMC3334620
